According to article PMC7819943, “Rice protein-binding microarrays: a tool to detect cis-acting elements near promoter regions in rice”:
The other results are listed elsewhere or left out.

biological target: T1, OsWOX13 (Oryza sativa, UniProt Q5QMM3 1-267); assay: protein-binding microarray (RPBM); PBS, 2% BSA, 51.3 ng/ul salmon testes DNA, 50 uM zinc acetate, 200 nM TF, 25 C, 1 h; high values mean tight binding; conditions: protein: recombinant; tags: N-terminal polyhistidine and DsRed monomer fusion (pET32a); label: CyDye5-dUTP incorporated in the synthesized complementary strand; 3' TTTTT single-stranded linker to array surface; dsDNA, one strand shown
T1 sequence: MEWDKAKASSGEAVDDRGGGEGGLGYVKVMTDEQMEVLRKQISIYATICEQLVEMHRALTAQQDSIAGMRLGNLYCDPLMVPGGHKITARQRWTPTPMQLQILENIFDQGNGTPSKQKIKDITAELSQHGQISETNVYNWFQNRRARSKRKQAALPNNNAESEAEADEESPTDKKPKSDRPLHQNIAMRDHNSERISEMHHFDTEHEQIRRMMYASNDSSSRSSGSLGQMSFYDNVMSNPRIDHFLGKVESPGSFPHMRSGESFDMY
Summary of the method: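 Binding signal is reported as fluorescence intensity per feature (arbitrary units) from an Axon 4000B scanner. Incubation used 200 nM of each Ni–NTA-purified, N-terminally polyhistidine- and DsRed-fused transcription factor from E. coli BL21-CodonPlus on a double-stranded custom Agilent array for 1 h at 25 °C, with 50 µM zinc acetate in the buffer, followed by washing.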

Row | Sequence | binding signal
1 | GGATTATGTTTACAATTTTCAAATAAATTAGTGTTAAACACGGAGTCACCTAGTGCAG | 4400 fluorescence intensity (a.u.)
2 | GTGATGATTGATCAGTTGAAAATTAATGAGCATGCAAATGCGGAGTCACCTAGTGCAG | 29000 fluorescence intensity (a.u.)
3 | TCTCTTGCCACCTCCATCAATCAATTCCTCTCGCGCCACCCGGAGTCACCTAGTGCAG | 10600 fluorescence intensity (a.u.)
4 | TTCCTAATTTAAATGGTTGCATATATCCGGTTGGATGTAGCGGAGTCACCTAGTGCAG | 22900 fluorescence intensity (a.u.)
5 | TTTAATAGAACAAAAGTAACTGTTGCATTCTAGTTGAAGTCGGAGTCACCTAGTGCAG | 5310 fluorescence intensity (a.u.)
6 | CTGATTATTTCCCAAGATAGAAAGAAATGTGTATTTTGGACGGAGTCACCTAGTGCAG | 7860 fluorescence intensity (a.u.)
7 | ATCAATGTGATTTGAAGTATGATAGTAAAGTCACAATTCACGGAGTCACCTAGTGCAG | 9150 fluorescence intensity (a.u.)
8 | CAGATTGTTTGATTTAAATATGAGCAACAAGGCGTCGACCCGGAGTCACCTAGTGCAG | 32200 fluorescence intensity (a.u.)
9 | AGGATTGAAGCGAGATGGATGAACTGCACGACGAAGAGCGCGGAGTCACCTAGTGCAG | 8260 fluorescence intensity (a.u.)
10 | AAAAGTAATTTATTATCTTAAATAGATAGAAGATATAAAACGGAGTCACCTAGTGCAG | 5360 fluorescence intensity (a.u.)
11 | ATATACTAAGTTACATTAATTTGTTATGTGCTAGTTGATACGGAGTCACCTAGTGCAG | 3610 fluorescence intensity (a.u.)
12 | CATAGATTACGTGTAAATTACAATGCGAATCTTTTAAACCCGGAGTCACCTAGTGCAG | 19700 fluorescence intensity (a.u.)
13 | CTAATCAAATAGGTTGATTTTCTTCCAAATCTCAGATACCCGGAGTCACCTAGTGCAG | 11500 fluorescence intensity (a.u.)
14 | TTATGATTACCATTTTAGTTTAACTATTTAAGTTTCCCAGCGGAGTCACCTAGTGCAG | 52000 fluorescence intensity (a.u.)
15 | CGATAGGTCAATCAAGCCAATTAACATGTCAAAAGACCATCGGAGTCACCTAGTGCAG | 30800 fluorescence intensity (a.u.)
16 | TCATTAATCCTGATTAGGTTTAGTGATACTGATGCACATACGGAGTCACCTAGTGCAG | 6680 fluorescence intensity (a.u.)
17 | ATAAAATGTAAATTATGCTTAAAATGCTTTTAGTGATAAACGGAGTCACCTAGTGCAG | 4750 fluorescence intensity (a.u.)
18 | TCTATGACTCGTTTATGATTACTTAATCTACCAGGCTCTTCGGAGTCACCTAGTGCAG | 4830 fluorescence intensity (a.u.)
19 | CCTCGATAATATATTGAATGTCATTCAATAATTCTGATAACGGAGTCACCTAGTGCAG | 4370 fluorescence intensity (a.u.)
20 | ATAACCGTAATTACCGAGCGGTTGCGTGACTTGCTGTTGCCGGAGTCACCTAGTGCAG | 14100 fluorescence intensity (a.u.)
21 | AGCAATAGACTAGATTAATAGTAAACCACCTCAATAGTATCGGAGTCACCTAGTGCAG | 7680 fluorescence intensity (a.u.)
22 | ATATACAAAATTTGTTAATCACAAAATATATAACACATATCGGAGTCACCTAGTGCAG | 6780 fluorescence intensity (a.u.)
23 | GCGGTTTTGTCGATAATCATGATTGTTAGTACTCGACAATCGGAGTCACCTAGTGCAG | 8170 fluorescence intensity (a.u.)
24 | TAAAATGAAGAGATGATTGTGCAAGCTTGTGGATGGGCCCCGGAGTCACCTAGTGCAG | 18300 fluorescence intensity (a.u.)
25 | CAAAATGCTTTGACTGGATAGGATAAAACCATCTGGCCGCCGGAGTCACCTAGTGCAG | 3500 fluorescence intensity (a.u.)
26 | AGGTGATTTACTATTAATCTAGTCTATTGCTGAGATGTACCGGAGTCACCTAGTGCAG | 36900 fluorescence intensity (a.u.)
27 | CATAATCCATCAATCATTCATTCCTAGCTCACATAAGACTCGGAGTCACCTAGTGCAG | 18300 fluorescence intensity (a.u.)

Row | Sequence | binding signal
28 | CTCAGCTGTTAAGCTGAGTGATTAACTCTTAAGCAATCACCGGAGTCACCTAGTGCAG | 5130 fluorescence intensity (a.u.)
29 | TCAGATTGATCAACTCAAGCAGTCAGGGTCGGTGAATGAGCGGAGTCACCTAGTGCAG | 27300 fluorescence intensity (a.u.)
30 | CAACCCTGATTGTTGGGGTACCAGCTTATATTTCACATTTCGGAGTCACCTAGTGCAG | 12900 fluorescence intensity (a.u.)
31 | ATTTAATTATTTATATACTTAATTAGATAATCTATAATAACGGAGTCACCTAGTGCAG | 22100 fluorescence intensity (a.u.)
32 | CAAAATCATTTATATTATGGGACGGAGGGAGTACAAACTACGGAGTCACCTAGTGCAG | 3970 fluorescence intensity (a.u.)
33 | AATTAATTGATATGTAATAAATGAGTGGATGTTTACTACTCGGAGTCACCTAGTGCAG | 47200 fluorescence intensity (a.u.)
34 | ATAATGTGATTGCCGGTGTTGTATCTATATCCGGAGGCTCCGGAGTCACCTAGTGCAG | 14500 fluorescence intensity (a.u.)
35 | ATAATTGTAATATAATTCCACTATAATTGTAATATGACTTCGGAGTCACCTAGTGCAG | 16200 fluorescence intensity (a.u.)
36 | CCAAGATTTGCCGCGACGATAAATCCTCTCGTTTCTCCGCCGGAGTCACCTAGTGCAG | 3190 fluorescence intensity (a.u.)
37 | TCTACAAATTAAGCTCTTAGTACTGACACAATCCAGCAGTCGGAGTCACCTAGTGCAG | 3640 fluorescence intensity (a.u.)
38 | CAATTGTAAATTTACCACGGTTTTGAATCGTTATTGCGAACGGAGTCACCTAGTGCAG | 7620 fluorescence intensity (a.u.)
39 | CTTCGTCAAATTAAACTAATCTAGTATAAGATTGGAACATCGGAGTCACCTAGTGCAG | 11400 fluorescence intensity (a.u.)
40 | TAGAGAATAATTAATTGAGTATTGTTATTACAAATTTAAACGGAGTCACCTAGTGCAG | 7440 fluorescence intensity (a.u.)
41 | TGTATAATTTCACCGTATTATGTACTTTGATAGTGTCTGTCGGAGTCACCTAGTGCAG | 5000 fluorescence intensity (a.u.)
42 | ACTAATTGCACAGTTACAGTAACCCACATATAATAATAATCGGAGTCACCTAGTGCAG | 34000 fluorescence intensity (a.u.)
43 | CCTGCCAATTAAAATTAAATTGAATTTAAAGTGCACTCTTCGGAGTCACCTAGTGCAG | 39800 fluorescence intensity (a.u.)
44 | ATCCAATCCAATCCAATCAAATCACATCGATCGACGCCGCCGGAGTCACCTAGTGCAG | 35300 fluorescence intensity (a.u.)
45 | CCCTTGTTTCTGTTTTGATTGCAACCTAAGAGACTCTTGACGGAGTCACCTAGTGCAG | 6270 fluorescence intensity (a.u.)
46 | TAATTGATTTGGGATTCAGTTTATCCACCGATTCCTCCGCCGGAGTCACCTAGTGCAG | 48700 fluorescence intensity (a.u.)
47 | ATTACACAGATTGCATGTAAATTGCGATACAAATCTTTTACGGAGTCACCTAGTGCAG | 4760 fluorescence intensity (a.u.)
48 | AAATAACTAATTACACAGATTGCGACTAGTTTGAGAGATGCGGAGTCACCTAGTGCAG | 30300 fluorescence intensity (a.u.)
49 | AGGAATTTATCATGATTATTGCTCATCTCAATAACAATTCCGGAGTCACCTAGTGCAG | 27400 fluorescence intensity (a.u.)
50 | CCATGATTGCTAAAAGTTTGCATTCGACCCCTTCCCTAATCGGAGTCACCTAGTGCAG | 13000 fluorescence intensity (a.u.)
51 | AAGTTAAACCACTTTAAATTAACTAGATTTATTTATAGGACGGAGTCACCTAGTGCAG | 6280 fluorescence intensity (a.u.)
52 | ATTAAATTTATTATTAAAATAGATAATAATTCGTGAAAACCGGAGTCACCTAGTGCAG | 12800 fluorescence intensity (a.u.)
53 | ATAATGACAAATTGACTTTTGGGTGGTCCTGCTTCTACCTCGGAGTCACCTAGTGCAG | 20200 fluorescence intensity (a.u.)
54 | GAATAAATAGGGGTTGATGACGTGGGTCCGGTCGCGGTTTCGGAGTCACCTAGTGCAG | 6660 fluorescence intensity (a.u.)
